This note sets out measurements from the RNAGym collection of RNA variant scans (doi:10.1093/nar/gkz1192).

B1: CPEB3 Ribozyme (parent)
chain: UAACAGGGGGCCACAGCAGAAGCGUUCACGUCGCAGCCCCUGUCAGAUUCUGGUGAAUCUGCGAAUUCUGCUGUAUAUCUC

Read counts are not given, so values of variants with three or more changes are uncertain.

This data set covers variants of B1. Nature of the data set: self-cleavage, relative activity (ratio to wild type); higher = more cleavage; in vitro, sequencing. The gist of the method: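 For each CPEB3 ribozyme variant, relative activity is its cleaved/total read fraction divided by the unmutated ribozyme's. Barcoded error-prone PCR libraries were transcribed by T7 RNA polymerase (5 hours, 37°C) and held in DNase I for 15 min before an EDTA stop, with cleavage occurring throughout. Template-switching reverse transcription and Illumina sequencing were used to read the RNAs. A 5-read minimum applied, and results are the mean of three batches.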
For the variant G10C U51C U80C, the self-cleavage worked out at 0.11.
In the case of G10A U31C U54A U60C A64C U74C it was 0.07.
In the case of C11G A13U A18U A21G U48C U76C U78C it was 0.03; in that of G10C U51A C81A, 0.25; in that of G10U A13G U41C A45C, 0.28.
In the case of G10U A20U U25C U43A U49G it was 0.04; in that of C11A A35G U60C U74A A75G, 0.08; in that of C11G A13G A15U A56G A57U U60A U72C, 0.14.
For C11A U43C A47G A65G, the self-cleavage came out at 0.04.
In the case of G10A A21G A35U U41C A45G A56G U72A it was 0.03.
In the case of C11A A13G A28G A56G U69C A75U it was 0.04; in that of G10U C11A A13U U41C A64G, 0.24.
In the case of G10C G24U A28U U41C A75G it was 0.08.
Regarding G10C G36A A65G, the self-cleavage turned out to be 0.07.
In the case of G10A G24A A35U U72A it was 0.1; in that of C11A A21G U49A A56G, 0.07.
In the case of C11A C37G U43C U74C it was 0.33; in that of G10C U25C U31C U72C, 0.05; in that of G10A A28G U72C, 0.38.
In the case of G10U U25C U48C U67C it was 0.07.
As for G10A G30A U41A U43C G55A, the self-cleavage was found to be 0.06.
In the case of G10U U58C U66C it was 0.08.
In the case of G10A A21G U41C U60C U74C it was 0.06; in that of G10C U43C U67A, 0.07.
In the case of G10A A56U A57G it was 0.06.
In the case of C11A U41A A45G U54G, the self-cleavage turned out to be 0.26.
In the case of C11A A15U A20G U54C it was 0.35.
G10A G36A A56G: the self-cleavage came to 0.16.
In the case of G10A U60A A65G U66C it was 0.13.
In the case of G10U U31A C59A A65G U66C it was 0.05.
Regarding C11A A13G A18G U48C U60C A64G, the self-cleavage stood at 0.06.
As to G10A A20U U43C A57C U78C, the self-cleavage came out at 0.06.
In the case of G10U C34U A35G it was 0.37; in that of G10A C14U C50G A56G U69C, 0.13.
G10U A65G U78C: the self-cleavage came out at 0.06.
In the case of G10A A28G U48C U60A it was 0.04; in that of G10C A18G U74C, 0.27; in that of C11A A18G C27A A45U A57G U60C U78C, 0.04.
In the case of G10A U25C U69A it was 0.16; in that of G10C A21G U26C U60A, 0.14.
In the case of G10A C27A C29U G53A U54G it was 0.26; in that of C11A A45G U48C U60C, 0.08; in that of C11A C17G A45G U48C, 0.06.
On to C11A U25A U60C A65G U67C, for which the self-cleavage was found to be 0.05.
In the case of G10C C27U A57G U60A U78C it was 0.06.
On to G10C A21G C23U U25A U54G, for which the self-cleavage turned out to be 0.09.
In the case of G10A U41A A65G it was 0.15; in that of G10A C37U A56U U66A, 0.03; in that of C11A U25C G30A C32G G52A U72C, 0.05.
In the case of G10U C23G G24C A57G G63A it was 0.1; in that of G10A U25A U31C U41C, 0.18; in that of C11A A21C U43C G53U A64U U67C U69A, 0.03.
In the case of G10U A21G U51A U66C it was 0.07.
G10A U49C C79G: the self-cleavage amounted to 0.06.
In the case of G10A U43C U49A U51A A65C it was 0.09.
Consider G10A A21G U25A U31A U51C, for which the self-cleavage was found to be 0.05.
For G10U U43A A45C A47G U74C, the self-cleavage was 0.15.
In the case of G10A A57G U76C it was 0.22.
On to G10C A18U U43A U51A, for which the self-cleavage was 0.23.
In the case of G10C A18G U43A U51A it was 0.07.
In the case of G10A A47G U78A it was 0.06; in that of G10U U25C G30A A56G U66C, 0.08; in that of G10U A28U U51C, 0.11.
In the case of G10A U25C U49C U54C U67A U72C it was 0.09.
Regarding G10A U25C A45G U49A, the self-cleavage is 0.34.
For the variant G10A U41G U51C A57U U78C, the self-cleavage is 0.11.
In the case of G10U A13U U25C U41A it was 0.17; in that of G10U G19U G42A A45G, 0.14.
Consider G10C A18U U31A, for which the self-cleavage was found to be 0.06.
For G10A C27A G52C, the self-cleavage turned out to be 0.16.
In the case of G10C U25C U60C A65G U69C it was 0.08.
As for G10U A15G U41A U54A, the self-cleavage turned out to be 0.04.
In the case of C11A C14A U25A U41C A45G A47G it was 0.06; in that of G10U A18C U41C G63U, 0.3; in that of C11A A64G U72C, 0.18.
In the case of C11A A15G A20G A35G A45G C59A it was 0.05; in that of G10C U76C U80C, 0.24; in that of C11A U58C U72C U78C, 0.07.
As for C11A U26C A57G A64U U67C U69C U80C, the self-cleavage came out at 0.04.
In the case of G10U U26C A28G U51C U76A, the self-cleavage stood at 0.08.
Turning to G10C U31A G52A U60C A65U, the self-cleavage was found to be 0.06.
In the case of G10U A13G A15G A45C U54C A64G it was 0.27.
In the case of C11A A20G A75G it was 0.03; in that of C11A A15G C23U U43G U67A U78C, 0.03.
